The structures appear in SMILES notation. Among all 340,000 compounds or so, about 6,900 (2%) were called active. Cut-off read from the data, not from the text of the source: active = inhibition above about 30%; inactive = below that, where a call was filed. Only a part is listed here, and it is no random draw. The source gives no active or inactive call for entries shown without one.

The target in this assay is D(2) dopamine receptor (Homo sapiens) (UniProt P14416). Put plainly: HTS Assay for Allosteric Antagonists of the Human D2 Dopamine Receptor: Primary Screen for Antagonists. Note: 0% is about no effect. To be noted: HEK293 TREx D2 cells, calcium flux, dopamine EC80; at 10 µM; stronger effect = higher value. The procedure, abridged: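 Calcium mobilization kinetics were recorded at 1 s intervals in tetracycline-induced HEK293 T-REx D2 cells, first for 180 s after compound addition and then 180 s after EC80 dopamine.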
Chain of UniProt P14416 (P14416 whole entry, looked up): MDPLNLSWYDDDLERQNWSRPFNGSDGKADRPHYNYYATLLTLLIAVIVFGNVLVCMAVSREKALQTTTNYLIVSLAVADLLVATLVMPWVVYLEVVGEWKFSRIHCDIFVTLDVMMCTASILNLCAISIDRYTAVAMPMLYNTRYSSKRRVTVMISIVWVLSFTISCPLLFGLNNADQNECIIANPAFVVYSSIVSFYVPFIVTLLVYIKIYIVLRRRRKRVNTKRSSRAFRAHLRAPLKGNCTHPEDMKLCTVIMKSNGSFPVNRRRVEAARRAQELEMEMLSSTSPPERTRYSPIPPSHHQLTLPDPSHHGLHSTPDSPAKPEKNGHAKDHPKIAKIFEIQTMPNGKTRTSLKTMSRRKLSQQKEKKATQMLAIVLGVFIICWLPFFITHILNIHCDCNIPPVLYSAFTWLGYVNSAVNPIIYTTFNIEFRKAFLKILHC
On to `Cc1nc2ccn(Cc3ccco3)c(=O)c2cc1C(=O)N1CCN(c2ccccc2F)CC1`, for which the inhibition was 0.323%. As for `COc1ccc2c(c1)c1c(c(=O)n(Cc3ccccc3)c(=O)n1Cc1cc(C)ccc1C)n2C`, the figure is -3.28%; as for `Cc1nn2c(=O)cc(COC(=O)c3ccccc3NC(=O)c3ccccc3C)nc2s1`, -5.92%; as for `COc1cccc(OCc2nc3ccccc3n2CCOc2ccccc2)c1`, -2.78%.

For `COc1ccc(/C=N/NC(=O)C(=O)NCc2cccnc2)cc1OC`, the inhibition was active: 32.7%. As for `CN(C(=O)c1nn(C)c2c1COc1ccccc1-2)c1cccc(C(F)(F)F)c1`, the figure is 14.7%. Consider `CCC(C)NC(=O)c1ccc2c(c1)N(Cc1cccc(Cl)c1)C(=O)c1ccccc1S2=O` (configuration not stated), for which the inhibition is -7.49%.

With `COCCNC(=O)c1c(NC(=O)Cc2coc3cc(C)ccc23)sc2c1CCCC2`, the inhibition is -18.2%. As for `O=C(CN(c1cccc(Br)c1)S(=O)(=O)c1ccccc1)N1CCc2ccccc2C1`, the figure is 15.2%; as for `COc1ccc(N2CCN(c3nc(-c4ccccc4F)nc4ccccc34)CC2)cc1`, 13.6%.

For the compound `COc1ccc(N2CCN(CCCNC(=O)c3cnn(-c4ccc(F)cc4)c3-n3cccc3)CC2)cc1`, the inhibition is 4.1%. As for `Cc1cc(NC(=O)C2CCN(S(=O)(=O)Cc3ccccc3)CC2)ccc1-n1cnnn1`, the figure is active: 30.4%; as for `CCOC(=O)c1cn(CC(=O)Nc2cccc(Cl)c2C)nn1`, 2%.

For `CCOc1ccccc1NC(=O)C(NS(=O)(=O)c1cccc2nsnc12)c1ccccc1` (configuration not stated), the inhibition worked out at 2.47%.

`Cc1nnc(N2CCN(c3ccccc3F)CC2)c2c1nnn2Cc1ccc(F)cc1`: the inhibition stood at 13.6%. For `CCC(CC)c1nn2c(=O)cc(COc3ccc(NC(=O)c4ccc(Cl)cc4)cc3)nc2s1` the value was -4.59%; for `CC(Sc1oc(-c2ccco2)nc1S(=O)(=O)c1ccc(Br)cc1)c1ccccc1` (configuration not stated), 9.28%. For `COCCNc1nc(NCc2ccccc2OC)c2cnn(C)c2n1` the value was -13.1%; for `CCN(CC)C(=O)COc1ccc2oc(C)c(C(=O)OC(C)C)c2c1`, active: 30.8%; for `CCc1ccccc1N(CC)C(=O)c1cc2c(s1)-c1ccccc1OC2`, -5.5%.

For the compound `COc1ccc(OC)c(CCNC(=O)c2ccc(CS(=O)Cc3cccc(Cl)c3)o2)c1` (configuration not stated), the inhibition was -2.42%. For the compound `Cc1ccccc1CSc1nc2nc(C)c(Cc3ccccc3)c(C)n2n1`, the inhibition is -17%. For `CCc1ccc(-n2nc(CO)c(C(=O)NCc3ccccn3)n2)cc1` the value was -0.634%; for `Cc1nc(-c2ccccc2)sc1-c1ccc(SCC(=O)Nc2ccc(F)cc2F)nn1`, 7.89%. For `Cc1oc2ncnc(N3CCCCC3)c2c1C(=O)NCC1CCN(Cc2ccc(F)cc2)CC1`, the inhibition was -0.243%. On to `N#Cc1ccc(OCC(=O)NC(=O)NC2CCS(=O)(=O)C2)cc1` (configuration not stated), for which the inhibition is active: 39.2%. `CCOC(=O)Cn1c(=O)cc(-c2ccccc2)c2c(C)nn(C)c21`: the inhibition is -6.04%. Regarding `Nc1nc(SCc2ccc([N+](=O)[O-])cc2)c2ncn(C3OC(CO)C(O)C3O)c2n1` (configuration not stated), the inhibition is active: 36.3%. In the case of `CCC(C)NC(=O)Cn1c(=O)n(-c2ccc(C)cc2)c(=O)c2ccccc21` (configuration not stated), the inhibition was -2.02%. Take `CCOc1cccc(N2CCN(CCNC(=O)Nc3ccc(C)cc3)CC2)c1C`: the inhibition was active: 43.9%. Regarding `CCN(CCCNC(=O)c1cc2cc3cc(C)ccc3nc2s1)c1cccc(C)c1`, the inhibition is -16.3%. For `COc1ccc(/C=C(/C#N)c2nc(-c3ccc(-c4ccccc4)cc3)cs2)cc1`, the inhibition came out at 0.0602%. Turning to `Cc1cccc(NC(=S)NC2CC3CCC(C2)N3Cc2ccco2)c1C` (configuration not stated), the inhibition is active: 36.1%.

`Cc1ccc(C)c(NC(=O)C(=O)NCCc2csc(-c3ccc(C(F)(F)F)cc3)n2)c1`: the inhibition turned out to be 3.42%. For `CCOC(=O)CC(NCc1ccc(OC)c(OCC)c1)c1ccc(C)cc1` (configuration not stated) the value was active: 60.6%. Take `Cc1cnn(C(=O)c2cc(-c3ccccc3)nc3ccccc23)c1`: the inhibition is active: 54.9%. For the compound `O=C(Nc1ccc(NC(=O)c2cccs2)cc1)c1ccc(Br)cc1`, the inhibition stood at 8.5%. As for `CC(C)(C)C(=O)Nc1ccc2nc(SCC(=O)N3CCCC3)sc2c1`, the figure is -26%; as for `O=C(OCc1ccccc1Cl)c1ccc(-c2nnn(Cc3ccccc3)n2)cc1`, -7.14%; as for `Cc1ccc(S(=O)(=O)c2cn(Cc3ccccc3)c3cc(N4CCCC4)c(F)cc3c2=O)cc1C`, -11.2%. As for `CCN(Cc1ccccc1)C(=O)CCNS(=O)(=O)c1ccc2c(c1)CC(C)N2C(C)=O` (configuration not stated), the figure is 7.03%; as for `COc1ccccc1CNS(=O)(=O)c1c(C)nc2sccn2c1=O`, 2.53%. For the compound `CCOC(=O)c1ccccc1NS(=O)(=O)c1c(-c2ccc(C)cc2)csc1C(=O)OC`, the inhibition came out at 0.571%. Consider `COc1cccc(CNC(=O)CCc2c(C)c3cc4c(C)c(C)oc4cc3oc2=O)c1`, for which the inhibition stood at 15.3%. For `Cc1nc(-c2ccccc2)sc1CCNC(=O)c1ccco1` the value was -0.034%; for `COC(=O)c1ccc(CN(c2ccccc2OC)S(=O)(=O)c2cccs2)o1`, active: 36%; for `CCN(C(=O)Cn1ncc2c1-c1cc(C)ccc1OC2)c1cc(Cl)ccc1OC`, 6.39%.

Regarding `CCN1CCCC1CNc1ncnc2c1[nH]c1ccc(F)cc12` (configuration not stated), the inhibition was active: 39.5%.

`CCc1ccccc1NC(=O)CSc1ncc2c(n1)-c1ccccc1N(Cc1ccc(C)cc1)S2(=O)=O`: the inhibition worked out at 8.58%. For `Cc1ccc(CN2CC[C@H]3C=CCc4cccc(c43)C2)cc1` the value was active: 56.7%; for `Cc1ccc(NC(=O)CN(C)S(=O)(=O)c2ccc3nc(C)sc3c2)c(C)c1`, -6.75%. As to `CCN(CC(=O)Nc1c(F)cccc1F)C(=O)C1COc2ccccc2O1` (configuration not stated), the inhibition is active: 35.7%. For `COc1ccc(Cl)cc1NC(=O)CCc1c(C)nc2c(c1C)c(=O)n(C)c(=O)n2C` the value was 5.02%; for `COc1cc(NC(=O)CSc2nc3nc(C)c(Cc4ccc(C)cc4)c(C)n3n2)cc(OC)c1`, 25.5%. As for `CCCSCCCNC(=O)c1ccc(Cn2c(=O)c3cccn3c3cccnc32)cc1`, the inhibition is -0.279%. In the case of `Cc1c(Cl)cccc1NC(=O)CN1C(=O)COc2ccc(S(=O)(=O)Nc3ccccc3)cc21`, the inhibition was -18.3%. Regarding `CCCOC(=O)CSc1nnc2ccc3ccccc3n12`, the inhibition was -14.2%. As for `O=C(CSc1nc2ccccc2nc1Cc1ccccc1)Nc1ccc2c(c1)OCO2`, the figure is 9.24%; as for `COc1ccc(NC(=O)c2ccc3c(c2)CCN3S(=O)(=O)c2ccc(C)cc2)cc1Cl`, 23.4%; as for `CCOC(=O)c1cccc(NC(=O)C(C)n2c(C)c3cnn(-c4ccccc4)c(=O)c3c2C)c1` (configuration not stated), -14.5%. Regarding `CCOc1ccccc1-n1cc2c(c1-c1ccc(OC)cc1)c(=O)n(C)c(=O)n2C`, the inhibition is -13%. In the case of `Cc1ccc(N(C)C(=O)C2CCN(S(=O)(=O)c3ccc4c(c3)CCCN4C(=O)C3CCC3)CC2)cc1`, the inhibition was -4.69%.
